According to the supplement of paper PMC3334620:
The full ranking holds about 33,000 sequences; the median of “E-score (-0.5 to 0.5)” is about -0.053, and the highest 2% start at about 0.37. The list shows a part of the results.

biological target: Hap1 (UniProt P0CE41); experiment: PBM E-score (8-mer binding enrichment) (E-score (-0.5 to 0.5)); higher = stronger / more preferred TF binding; most listed sequences are background and not binding sites; details: protein concentration: 200 nM; construct: GST-DNA-binding domain
In short: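 Universal all-10-mer Agilent arrays, fresh or stripped once, were converted to double-stranded form by primer extension. GST-tagged yeast transcription factors from PURExpress in vitro transcription/translation, full-length or DNA-binding domain only, were applied at about 100-200 nM and detected with fluorescent anti-GST. After masliner normalisation, the Universal PBM Analysis Suite scored each ungapped eight-base word together with its reverse complement by E-score.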

Sequence of UniProt P0CE41 (P0CE41 whole entry, the tested form may be a part): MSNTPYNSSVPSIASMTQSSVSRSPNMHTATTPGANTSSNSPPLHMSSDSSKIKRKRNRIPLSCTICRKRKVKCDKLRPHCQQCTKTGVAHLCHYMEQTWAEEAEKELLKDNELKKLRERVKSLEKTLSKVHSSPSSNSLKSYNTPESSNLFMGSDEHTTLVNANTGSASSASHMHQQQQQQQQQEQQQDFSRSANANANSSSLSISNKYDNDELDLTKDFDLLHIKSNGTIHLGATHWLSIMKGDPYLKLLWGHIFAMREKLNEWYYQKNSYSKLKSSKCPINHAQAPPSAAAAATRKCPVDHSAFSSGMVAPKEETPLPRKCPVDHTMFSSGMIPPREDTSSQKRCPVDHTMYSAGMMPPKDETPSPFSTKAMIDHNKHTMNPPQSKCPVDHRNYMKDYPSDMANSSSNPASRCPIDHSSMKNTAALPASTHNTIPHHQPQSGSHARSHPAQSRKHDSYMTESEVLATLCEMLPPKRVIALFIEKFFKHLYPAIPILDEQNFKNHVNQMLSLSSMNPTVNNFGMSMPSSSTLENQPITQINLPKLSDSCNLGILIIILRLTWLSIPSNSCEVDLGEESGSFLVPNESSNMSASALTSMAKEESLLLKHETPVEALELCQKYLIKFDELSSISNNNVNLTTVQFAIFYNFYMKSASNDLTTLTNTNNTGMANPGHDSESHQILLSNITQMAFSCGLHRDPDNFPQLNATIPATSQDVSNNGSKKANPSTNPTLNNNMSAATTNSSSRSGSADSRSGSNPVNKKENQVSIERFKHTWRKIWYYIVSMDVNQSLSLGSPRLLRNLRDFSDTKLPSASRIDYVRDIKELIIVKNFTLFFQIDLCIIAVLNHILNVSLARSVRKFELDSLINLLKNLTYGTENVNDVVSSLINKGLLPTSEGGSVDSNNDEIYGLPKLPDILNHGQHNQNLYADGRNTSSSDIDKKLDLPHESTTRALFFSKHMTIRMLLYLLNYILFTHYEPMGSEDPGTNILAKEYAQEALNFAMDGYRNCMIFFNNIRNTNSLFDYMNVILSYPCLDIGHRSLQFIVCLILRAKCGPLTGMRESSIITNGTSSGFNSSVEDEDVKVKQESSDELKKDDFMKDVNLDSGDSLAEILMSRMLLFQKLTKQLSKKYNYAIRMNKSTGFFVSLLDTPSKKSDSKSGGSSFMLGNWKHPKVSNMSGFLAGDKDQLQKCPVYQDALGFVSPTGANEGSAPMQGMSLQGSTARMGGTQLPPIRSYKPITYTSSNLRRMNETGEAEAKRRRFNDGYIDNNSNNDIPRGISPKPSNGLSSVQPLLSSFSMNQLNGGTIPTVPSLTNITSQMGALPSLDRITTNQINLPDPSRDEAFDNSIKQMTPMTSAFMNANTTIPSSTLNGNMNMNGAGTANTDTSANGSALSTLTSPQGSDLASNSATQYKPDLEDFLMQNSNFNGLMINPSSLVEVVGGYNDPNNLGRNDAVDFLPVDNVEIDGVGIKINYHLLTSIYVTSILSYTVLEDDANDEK

Sequence	PBM E-score
GGCGTCAA	-0.0394
CCACAGCG	-0.179
GCCCGCCA	0.195
CAGCTTAG	-0.0798
ATTTGCAC	-0.247
GATTAGAC	0.0444
GCACATGC	-0.053
GGTGCTAC	-0.131
CCGGATTA	0.383
AGCGGACC	0.257
ACCGATCA	0.183
ACTTTGCA	-0.163
TACTCAAA	-0.131
CCGTGTTC	0.185
CCAGCCTA	-0.281
ATTGGTAC	-0.0137
AACGAATC	0.0254
TACATGCA	-0.17
CCCTTCCA	-0.176
GATTGAAC	-0.0782
ACGATATC	0.0796
ACCCAACT	-0.155
AACCCCGC	0.371
AATGCTCG	0.0742
CAAAAACA	-0.215

Sequence	PBM E-score
AATTGTTA	-0.109
CAATAAAC	0.249
AAATTGTC	0.0182
AAGTCCCG	0.211
ACGAGAAA	-0.00338
AGCTTTGC	0.0588
AAGTTAAT	-0.0455
ACATATCC	0.0913
GAGCCTCC	-0.0758
TAGATGCA	-0.177
ACTGTTCC	-0.0163
TGCGGAAA	0.213
CACTAGAG	-0.156
AGTCGCGG	0.0569
ACGTTACA	-0.361
AACAGCGG	0.175
TCTCGAAA	-0.269
GGTGGAAC	-0.127
CGGGCTAG	0.197
GTCCGCAC	0.237
ACGGACGT	0.329
CAATTGCA	-0.136
GATGAGCA	-0.0729
AATAGAAA	-0.0943
CACAAAGC	-0.179

Sequence	PBM E-score
ACAAGCAG	-0.073
CACTTGCG	-0.26
ATGTGCGC	-0.02
CAGTGGAG	-0.0671
CGGCTTCA	0.135
AGGCGTAG	-0.153
CGCTCGGC	0.344
CCCGACCA	0.171
CCCCGCAA	0.258
CCACCTTC	-0.194
GGTTCGAA	0.00151
CAGTGAGG	-0.273
CCTCTCAA	0.0202
AGTCCCAT	-0.151
TCTGTCCA	0.00731
CAGGAGTA	-0.176
AGAGTTTC	-0.0568
GAACCCTA	-0.0445
CGGATTTC	0.426
TCAGGGGA	-0.193
AAATCTCG	0.232
CACACTTC	-0.106
CATTGCCG	0.173
AGTAGACA	-0.103
CCCGTCAA	0.0595

Sequence	PBM E-score
AGGTACGA	-0.169
GAAGCCAC	0.0224
GAAGCAGA	-0.265
AAACAGCT	-0.0134
GATGAATA	0.0177
AACCTAAA	-0.0221
AGATGATA	-0.066
GTGTCGAA	-0.256
AACAAAGG	0.0332
CCGACTTA	0.242
CCACCACA	-0.0536
AGAGTCAG	-0.0127
ATTGTGTA	-0.115
AGCAGGAG	-0.0101
AGTGGGTG	0.0112
AACCCTGG	-0.241
CCTTGACA	-0.275
CTTTTTGA	-0.167
ACATATCT	0.0923
ACTTAGCC	-0.107
AATGTGTG	0.00167
CGCTGTTA	0.273
CCCTTACA	-0.191
CCGAGTGC	0.272
AATCCTGA	-0.161

Sequence	PBM E-score
CATGTTCA	-0.207
ATTAGTAA	0.0833
GAGCCCTA	-0.123
ATCGTTCG	0.113
CACGAATC	0.0946
CGTATACA	-0.168
CATCCATC	0.018
GCGTCGAC	0.00401
GTTCTTGA	-0.308
CTACATTC	-0.0459
GGAAAACC	0.14
GCCCGTCA	0.125
ATTGGGAA	-0.133
CTATTCCC	0.16
TGCTTTAA	-0.055
GACGTTCA	-0.15
GCGGCCCA	0.147
AACGACTC	-0.207
CAGCGCGC	0.057
ACCGGCAG	0.187
CTGGAAAC	-0.175
GCTACACA	-0.328
CATGAGTC	-0.145
TAGAGCCA	-0.232
AATGAATC	-0.142

Sequence	PBM E-score
CACTTCTG	-0.262
CATTTTTA	-0.0317
CACTAATC	0.155
AGCTGCTA	-0.265
GCTACGAC	0.103
TATCCGCA	0.253
GAGAATCA	-0.0525
ATTCCAGA	0.0508
CATGGGGA	0.055
GATGTCAA	-0.119
CATGCTCC	-0.0921
AGTGCGGG	0.139
CTTTTGAC	-0.126
AGAACAGA	0.00492
TGGAAAAA	-0.126
CGACCAAG	-0.154
AGTACTAG	-0.161
CTCTTCAG	-0.242
GCCGTTTA	0.136
CCTACGGA	0.232
CGTTTGTA	-0.122
GAAGTGGC	-0.0295
ATGTTCAC	-0.12
AGGCGCTG	0.0376
CCGACATC	0.278

Sequence	PBM E-score
AGACCTCC	-0.0226
ACGTACGC	-0.0901
GTAAGTTA	0.022
ATCTGGTA	-0.145
CAAGCATC	-0.038
ACAAGGAC	-0.33
CGTTATTA	0.267
CTCGTCTC	-0.0915
AGGGAATA	0.127
TATATATA	0.221
ATGCATGG	-0.0424
AATGGGAC	-0.0886
CACGATCG	-0.00398
GTGAGCAC	-0.232
CAGGTGCA	-0.0951
CAACATAA	-0.0444
CAAATCGG	0.3
CACGCTCG	-0.0319
CTTTGTTA	-0.09
AGCGCCCC	-0.0264
ACCCGTCA	0.155
AGTGCAAA	-0.197
